Reference: the supplement of paper PMC6089552
Among all 3,200 compounds or so, about 300 (9.4%) showed activity. The list shows a part of the results, in another mix than the full data.

Test system: A673/TR/shEF
Experiment: cell viability (LOESS-normalised, relative to median of negative controls) (log2 ratio); higher = more viable cells (less compound effect), active = hit call of the paper (over 3 MAD below the median)
Conditions: treatment time: 72 h
Procedure, shortened: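 A673/TR/shEF Ewing sarcoma cells (1,500 per well, 384-well plates) were grown with or without doxycycline to induce EWS-FLI1 shRNA knockdown, starting 24 h before compounds. Library compounds at two or more concentrations, with DMSO controls, were added for three days. Cell viability was read by CellTiter-Glo luminescence on an Envision reader, then LOESS-corrected per plate, divided by the median of negative controls and log2-transformed. Hits were wells at least three median absolute deviations from the median of all screened wells.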

[1] = 0.25 µM, library screen: screen2, EWS-FLI1 expression: high (no doxycycline)
[2] = 0.25 µM, library screen: screen2, EWS-FLI1 expression: low (doxycycline-induced shRNA knockdown)
[3] = 2.5 µM, library screen: screen2, EWS-FLI1 expression: high (no doxycycline)
[4] = 2.5 µM, library screen: screen2, EWS-FLI1 expression: low (doxycycline-induced shRNA knockdown)
[5] = 2.5 µM, library screen: screen1, EWS-FLI1 expression: high (no doxycycline)
[6] = 0.103 µM, library screen: screen3, EWS-FLI1 expression: high (no doxycycline)
[7] = 0.103 µM, library screen: screen3, EWS-FLI1 expression: low (doxycycline-induced shRNA knockdown)
[8] = 0.308 µM, library screen: screen3, EWS-FLI1 expression: high (no doxycycline)
[9] = 0.308 µM, library screen: screen3, EWS-FLI1 expression: low (doxycycline-induced shRNA knockdown)
[10] = 0.926 µM, library screen: screen3, EWS-FLI1 expression: high (no doxycycline)
[11] = 0.926 µM, library screen: screen3, EWS-FLI1 expression: low (doxycycline-induced shRNA knockdown)
[12] = 2.8 µM, library screen: screen3, EWS-FLI1 expression: high (no doxycycline)
[13] = 2.8 µM, library screen: screen3, EWS-FLI1 expression: low (doxycycline-induced shRNA knockdown)
[14] = 8.3 µM, library screen: screen3, EWS-FLI1 expression: high (no doxycycline)
[15] = 8.3 µM, library screen: screen3, EWS-FLI1 expression: low (doxycycline-induced shRNA knockdown)
[16] = 25 µM, library screen: screen3, EWS-FLI1 expression: high (no doxycycline)
[17] = 25 µM, library screen: screen3, EWS-FLI1 expression: low (doxycycline-induced shRNA knockdown)
[18] = 0.25 µM, library screen: screen1, EWS-FLI1 expression: high (no doxycycline)
[19] = 0.25 µM, library screen: screen1, EWS-FLI1 expression: low (doxycycline-induced shRNA knockdown)
[20] = 2.5 µM, library screen: screen1, EWS-FLI1 expression: low (doxycycline-induced shRNA knockdown)

Measured: cell viability (log2)

OC[C@H]1O[C@@H](n2cnc3c(NC4CCCC4)ncnc32)[C@H](O)[C@@H]1O
inactive: [1] 0.202 | [2] 0.0466 | [3] 0.138 | [4] 0.0975

N#CC(=C(N)Sc1ccccc1N)C(C#N)=C(N)Sc1ccccc1N
active: [5] -0.31 | 25 µM, library screen: screen1, EWS-FLI1 expression: high (no doxycycline) -0.459

C[N+](C)(C)CC=O
inactive: [1] 0.236 | [2] 0.0935 | [3] 0.178 | [4] 0.118

CN1CC(=O)N2[C@H](c3ccc4c(c3)OCO4)c3[nH]c4ccccc4c3C[C@@H]2C1=O
inactive: [6] 0.0722 | [7] 0.0676 | [8] 0.0239 | [9] 0.00816 | [10] 0.00685 | [11] 0.0455 | [12] 0.00758 | [13] -0.0093 | [14] 0.0413 | [15] 0.0751 | [16] 0.000365 | [17] 0.0545

C1CCC(C(CC2CCCCN2)C2CCCCC2)CC1 (stereo unspecified)
inactive: [18] 0.0789 | [19] 0.179 | [5] 0.124 | [20] 0.155

CC(C)NCC(O)COc1ccc(CCOCC2CC2)cc1 (stereo unspecified)
inactive: [1] 0.217 | [2] 0.0914 | [3] 0.1 | [4] 0.147

CCc1nc(N)nc(N)c1-c1ccc(Cl)cc1
inactive: 0.025 µM, library screen: screen2, EWS-FLI1 expression: high (no doxycycline) 0.129 | 0.025 µM, library screen: screen2, EWS-FLI1 expression: low (doxycycline-induced shRNA knockdown) 0.0541 | [6] 0.0417 | [7] 0.0477 | [18] 0.0408 | [19] 0.123 | [1] 0.112 | [2] 0.0163 | [8] 0.0837 | [9] 0.135 | [10] 0.0823 | [11] 0.107 | [5] 0.0817 | [20] 0.0354 | [3] 0.122 | [4] 0.129 | [12] 0.0808 | [13] 0.046 | [14] 0.0995 | [15] 0.0615 | 25 µM, library screen: screen2, EWS-FLI1 expression: high (no doxycycline) 0.0523 | 25 µM, library screen: screen2, EWS-FLI1 expression: low (doxycycline-induced shRNA knockdown) -0.0463 | [16] 0.153 | [17] 0.146

CC(=O)[C@@]1(O)CC[C@H]2[C@@H]3C[C@H](C)C4=CC(=O)C=C[C@]4(C)[C@@]3(F)[C@@H](O)C[C@@]21C
inactive: [18] 0.043 | [19] 0.0192 | [5] 0.0466 | [20] -0.346

COc1ccc2c(c1)OC/C(=C/c1ccc(OC)c(OC)c1)C2=O
inactive: [18] -0.0118 | [19] 0.0273 | [5] 0.0915 | [20] 0.0859

COc1cc(C(=O)NCc2ccc(OCCN(C)C)cc2)cc(OC)c1OC
inactive: [18] 0.112 | [19] 0.0356 | [5] 0.157 | [20] 0.166

O=c1cc(CO)occ1O
inactive: [18] 0.0933 | [19] 0.0544 | [5] 0.132 | [20] -0.023

C[C@@H]1CC[C@H]2[C@](C)(CO)[C@@H](O)CC[C@]2(C)[C@@]12CC[C@@](CO)(CCO)O2
inactive: [18] 0.0457 | [19] -0.0603 | [5] 0.0942 | [20] 0.112

CC1(C)C=Cc2c(cc3occ(-c4ccc5c(c4)OCO5)c(=O)c3c2O)O1
inactive: [19] 0.0822 | [5] 0.0137 | [20] 0.0314
active: [18] -0.098

NC1CCN(c2cccc(Cl)n2)CC1
inactive: [1] 0.144 | [2] 0.116 | [3] 0.262 | [4] 0.074

NC(=NCCC[C@H](N)C(=O)O)NO
inactive: [1] 0.166 | [2] 0.0583 | [3] 0.144 | [4] -0.026

O=C(O)COCCN1CCN(C(c2ccccc2)c2ccc(Cl)cc2)CC1 (stereo unspecified)
inactive: [6] 0.0797 | [7] 0.0652 | [8] 0.0829 | [9] 0.0941 | [10] 0.0635 | [11] 0.0408 | [12] 0.0831 | [13] 0.0467 | [14] -0.0492 | [15] 0.0358 | [16] 0.0636 | [17] 0.0303

N[C@@H]1CONC1=O
inactive: [18] 0.0504 | [19] -0.00481 | [1] 0.235 | [2] 0.0868 | [5] 0.125 | [20] 0.106 | [3] 0.132 | [4] 0.0538

COc1ccc2cc([C@H](C)CO)ccc2c1
inactive: [18] 0.0374 | [19] 0.0691 | [5] 0.0774 | [20] 0.0469

O=C(O)C1CCCN(CCC=C(c2ccccc2)c2ccccc2)C1 (stereo unspecified)
inactive: [1] 0.192 | [2] 0.08 | [3] 0.157 | [4] -0.00322

CC(=O)O[C@]1(C(C)=O)CC[C@H]2[C@@H]3C=C(Cl)C4=CC(=O)[C@@H]5C[C@@H]5[C@]4(C)[C@H]3CC[C@@]21C
inactive: [18] 0.0464 | [19] 0.0361 | [1] 0.167 | [2] 0.093 | [5] 0.125 | [20] 0.152 | [3] 0.0713 | [4] 0.00196

Clc1ccc(Cn2c(CN3CCCC3)nc3ccccc32)cc1
inactive: [1] 0.236 | [2] 0.105 | [3] 0.0991 | [4] 0.124

COc1cc2nc(N(C)CCCNC(=O)C3CCCO3)nc(N)c2cc1OC (stereo unspecified)
inactive: [6] 0.0691 | [7] 0.0104 | [8] 0.0888 | [9] -0.0191 | [10] -0.0428 | [11] -0.00583 | [12] 0.0393 | [13] 0.0845 | [14] 0.1 | [15] 0.0506 | [16] 0.0282 | [17] 0.14

O=C(O)/C=C/c1ccc(O)c(O)c1
inactive: [18] 0.082 | [19] -0.0191 | [1] 0.181 | [2] 0.126 | [5] 0.109 | [20] 0.0871 | [3] 0.0522 | [4] 0.0284

CSc1nnc(-c2ccccc2)c(-c2ccccc2)n1
inactive: [18] 0.103 | [19] 0.00324 | [5] 0.0984 | [20] 0.0395

O=C(O)/C(=C/c1c(C(=O)O)[nH]c2cc(Cl)cc(Cl)c12)c1ccccc1
inactive: [1] 0.0854 | [2] 0.0716 | [3] 0.0828 | [4] -0.0111

O=C(O)Cc1nn(Cc2ccc(Br)cc2F)c(=O)c2ccccc12
inactive: [18] 0.105 | [19] 0.114 | [5] 0.175 | [20] 0.176

OCC1OC(n2cnc3c(NC4CCCCC4)ncnc32)C(O)C1O (stereo unspecified)
inactive: [1] 0.119 | [2] 0.0527 | [3] 0.124 | [4] 0.0769

N[C@@H](Cc1c[nH]c2ccc(O)cc12)C(=O)O
inactive: [1] 0.107 | [2] 0.0832 | [3] 0.155 | [4] 0.0628

NC(N)=Nc1ccc(Cl)cc1
inactive: [18] 0.0833 | [19] -0.0263 | [5] 0.0885 | [20] 0.0171

COc1ccc(OC)c(C2NC(=S)NC(C)=C2C(=O)Nc2ccccc2Cl)c1 (stereo unspecified)
inactive: [18] 0.0287 | [19] 0.0702 | [5] 0.112 | [20] 0.148

CNC(=O)CN(CCN(CCN(CC(=O)[O-])CC(=O)NC)CC(=O)[O-])CC(=O)[O-].O.[Gd+3]
inactive: [6] 0.106 | [7] -0.0293 | [8] 0.00861 | [9] 0.114 | [10] 0.0946 | [11] 0.0839 | [12] 0.127 | [13] 0.127 | [14] 0.0841 | [15] 0.116 | [16] 0.0924 | [17] 0.134

CN(Cc1ccccc1)C(=O)C=Cc1ccc([N+](=O)[O-])cc1
inactive: [18] 0.0837 | [19] 0.078 | [5] 0.013 | [20] 0.137

NC[C@@H]1CC[C@@H](N)[C@@H](O[C@H]2[C@H](O)[C@@H](O[C@H]3O[C@H](CO)[C@@H](O)[C@H](N)[C@H]3O)[C@H](N)C[C@@H]2N)O1
inactive: [18] 0.0283 | [19] 0.046 | [5] 0.0406 | [20] 0.091

CC1=C(/C=C/C(C)=C/C=C/C(C)=C/C(=O)O)C(C)(C)CCC1
inactive: [6] 0.00907 | [7] 0.0022 | [18] -0.0184 | [19] 0.115 | [1] 0.173 | [2] 0.0676 | [8] 0.0569 | [9] 0.15 | [10] 0.0149 | [11] 0.135 | [5] -0.0163 | [20] 0.178 | [3] 0.0368 | [4] 0.183 | [12] -0.0527 | [13] 0.116 | [14] -0.0171 | [15] 0.084 | [16] -0.0128 | [17] 0.173

CC(C)=CCC/C(C)=C/C=C/C(C)=C/C=C/C(C)=C/C=C/C=C(C)/C=C/C=C(C)/C=C/C=C(\C)CCC=C(C)C
inactive: [18] 0.149 | [19] 0.105 | [5] 0.156 | [20] 0.123

CC(=O)O[C@@H]1CC2C(C)(C)[C@H](O)C=C[C@]2(C)C2CC[C@@]3(C)[C@H](c4ccoc4)OC(=O)C4OC43[C@@]21C (stereo partly specified)
inactive: [18] 0.000168 | [19] 0.0262 | [5] 0.0677 | [20] 0.0357

NC(=O)c1cc[n+](CC2=C(C(=O)[O-])N3C(=O)[C@@H](NC(=O)[C@@H](c4ccccc4)S(=O)(=O)O)[C@H]3SC2)cc1
inactive: [1] 0.178 | [2] 0.128 | [3] 0.0497 | [4] 0.0859
